Columns and labels:
[1] = molecular target: Apoptosis inducing factor (AIF) from rat hippocampal extracts (rat, UniProt Q9JM53 102-612, limits assumed); experiment: GST pull-down, Western blot for AIF
[2] = molecular target: [35S]-GAPDH probe (in vitro translated, [35S]-methionine labelled GAPDH) (Homo sapiens, UniProt P04406 1-335, limits assumed, [35S]-methionine labelled); experiment: in vitro binding assay (blot overlay), FIG. 5C

Sequence of UniProt Q9JM53 (Q9JM53 102-612 limits assumed): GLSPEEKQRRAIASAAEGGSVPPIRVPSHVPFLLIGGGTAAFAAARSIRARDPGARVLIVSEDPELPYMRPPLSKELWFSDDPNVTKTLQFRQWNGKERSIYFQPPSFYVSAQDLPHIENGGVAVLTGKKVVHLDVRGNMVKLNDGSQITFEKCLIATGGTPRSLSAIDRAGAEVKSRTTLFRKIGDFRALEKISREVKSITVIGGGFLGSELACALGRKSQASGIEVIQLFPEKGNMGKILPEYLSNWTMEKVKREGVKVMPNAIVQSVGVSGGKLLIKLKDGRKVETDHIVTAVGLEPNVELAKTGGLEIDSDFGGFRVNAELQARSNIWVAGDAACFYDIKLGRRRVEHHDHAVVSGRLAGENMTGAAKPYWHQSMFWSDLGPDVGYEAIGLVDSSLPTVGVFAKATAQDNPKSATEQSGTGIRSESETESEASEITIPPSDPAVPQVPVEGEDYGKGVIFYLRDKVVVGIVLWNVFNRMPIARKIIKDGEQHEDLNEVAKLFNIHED

B1: GST alone (other)
chain: not shown
notes: Negative control; also called GST peptide
What does the source list for B1?
binding result [1]: no binding; binding result [2]: no binding

— patent publication US20130336951A1 (CENTRE FOR ADDICTION AND MENTAL HEALTH, published 2013)
